The other results are listed elsewhere or left out. Sequences were assembled here from the parent chain. Values near 0.05 are background.
B1: TEV protease; numbered along this chain (parent)
chain: MGESLFKGPRDYNPISSSICHLTNESDGHTTSLYGIGFGPFIITNKHLFRRNNGTLVVQSLHGVFKVKDTTTLQQHLVDGRDMIIIRMPKDFPPFPQKLKFREPQREERICLVTTNFQTKSMSSMVSDTSCTFPSGDGIFWKHWIQTKDGQCGSPLVSTRDGFIVGIHSASNFTNTNNYFTSVPKNFMELLTNQEAQQWVSGWRLNADSVLWGGHKVFMVKPEEPFQPVKEATQL

Variants of: B1
Experiment: raw area under fraction-flipped curve 0-4 h after induction (AUC4h, not background-subtracted), DNA-recorder readout of cleavage of the substrate (dimensionless); higher = more cleavage of the substrate by the protease variant
Conditions: temperature: 34 °C; time window: 0-4 h after rhamnose induction
Description: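 In vivo DNA recorder in E. coli TOP10(DE3) ΔrhaA at 34 °C. Each TEVp single-site mutant (parent TEVp 0) is paired with a single-site variant of the 7-mer TEVs (canonical ENLYFQ|S). The substrate sits between flexible linkers in a Bxb1-sfGFP-TEVs-SsrA fusion, so cleavage stabilises Bxb1 and speeds flipping of a recombination array, read by NGS. The value is the raw area under the fraction-flipped curve over 0-4 h after rhamnose induction (AUC4h), with ≥20 reads per time point. It is not background-subtracted; inactive controls average about 0.047.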
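Further: Bxb1 expression induced with 0.2% (w/v) L-rhamnose at OD600 near 0.5, cultures sampled hourly, flipped fraction per protease–substrate barcode pair counted by paired-end Illumina sequencing.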

Row | Variant | area with substrate ENLAFQS | area with substrate ENLDFQS | area with substrate ENLEFQS | area with substrate ENLFFQS | area with substrate ENLHFQS | area with substrate ENLKFQS | area with substrate ENLLFQS | area with substrate ENLMFQS | area with substrate ENLNFQS | area with substrate ENLPFQS | area with substrate ENLQFQS | area with substrate ENLSFQS | area with substrate ENLVFQS | area with substrate ENLCFQS | area with substrate ENLRFQS | area with substrate ENLGFQS | area with substrate ENLIFQS | area with substrate ENLTFQS | area with substrate ENLWFQS
1 | R102W | 0.0552 | 0.0509 | 0.0537 | 0.0568 | 0.0549 | 0.0513 | 0.02 | 0.0706 | 0.0557 | 0.0426 | 0.0521 | 0.0553 | 0.0378 | – | – | – | – | – | –
2 | R102D | 0.0334 | 0.0509 | – | 0.0819 | 0.0382 | 0.0478 | – | 0.0473 | – | 0.0528 | 0.0359 | 0.0491 | 0.054 | 0.0472 | 0.0476 | – | – | – | –
3 | M122W | 0.08 | 0.0675 | 0.0569 | 0.057 | 0.0697 | 0.0456 | 0.0797 | – | 0.0671 | 0.0459 | 0.0633 | 0.0598 | 0.0871 | – | 0.0794 | 0.0634 | 0.0791 | 0.0571 | 0.0725
4 | M122L | 0.0633 | 0.0774 | – | 0.101 | 0.11 | 0.0765 | – | – | 0.0675 | – | – | 0.0626 | 0.0997 | 0.0869 | 0.069 | – | 0.084 | – | 0.06
5 | K142H | 0.0789 | 0.0617 | 0.0718 | 0.0912 | 0.0785 | 0.0776 | 0.0775 | 0.0731 | 0.0626 | 0.0634 | 0.0767 | 0.0574 | 0.0988 | – | 0.069 | 0.067 | 0.0823 | 0.0678 | 0.0681
6 | K142M | 0.0897 | 0.0622 | 0.0663 | 0.083 | 0.079 | 0.0789 | 0.076 | – | 0.0625 | 0.0694 | 0.0601 | 0.0706 | – | 0.0814 | 0.0731 | – | 0.0942 | – | 0.0713
7 | F117G | 0.0746 | 0.065 | – | – | 0.0815 | – | – | – | 0.0546 | 0.0598 | – | 0.0673 | – | – | 0.0855 | 0.0631 | 0.0751 | – | –
8 | F117K | 0.0688 | – | – | 0.0796 | 0.0613 | – | – | – | 0.0594 | 0.0663 | – | 0.0555 | – | 0.0718 | – | 0.0732 | 0.0746 | – | –
9 | Q105A | 0.0768 | 0.0603 | 0.0587 | 0.116 | 0.0695 | 0.0791 | 0.0593 | 0.0496 | 0.064 | 0.0514 | 0.0667 | 0.0532 | – | – | 0.0749 | – | – | – | 0.0573
10 | I86E | 0.0466 | 0.032 | – | 0.0352 | 0.036 | 0.0393 | 0.0325 | – | 0.0478 | 0.0347 | – | 0.057 | – | 0.0363 | 0.0388 | – | – | – | 0.0365
11 | H143W | 0.0248 | 0.0631 | 0.0469 | 0.0746 | 0.0574 | 0.0607 | 0.0917 | 0.112 | 0.0577 | 0.0525 | 0.066 | – | – | 0.049 | – | – | 0.0661 | – | –
12 | H143K | 0.0574 | – | 0.0602 | 0.0611 | – | 0.0588 | 0.0776 | 0.044 | 0.0589 | 0.0749 | – | 0.0644 | 0.0573 | – | 0.0536 | 0.0721 | 0.0742 | – | 0.0694
13 | V113A | 0.0549 | 0.0571 | 0.0669 | 0.0854 | 0.0697 | 0.08 | 0.063 | – | 0.0607 | – | 0.0854 | 0.0693 | – | 0.0692 | – | 0.0591 | – | 0.0613 | 0.0636
14 | V113T | 0.0639 | 0.0673 | – | 0.0693 | 0.0628 | – | – | – | 0.0453 | – | 0.0603 | – | 0.0668 | – | – | – | – | – | 0.0796
15 | C111I | 0.0549 | 0.0608 | 0.0704 | 0.0724 | – | 0.0758 | 0.0487 | – | 0.068 | 0.0582 | – | 0.0542 | – | – | 0.0675 | – | – | – | 0.0708
16 | K100S | 0.0649 | 0.0433 | 0.0671 | 0.0819 | 0.0668 | 0.0737 | – | 0.0688 | 0.0639 | 0.0583 | 0.0656 | 0.0962 | 0.0911 | 0.0698 | 0.0732 | 0.0711 | 0.0986 | 0.0395 | –
17 | E103W | 0.0515 | 0.0602 | 0.0682 | 0.0688 | 0.0644 | 0.0625 | 0.0687 | 0.0638 | 0.0799 | 0.059 | 0.0587 | 0.0573 | 0.0821 | – | 0.0694 | 0.0439 | 0.0682 | 0.0814 | 0.0587
18 | R81D | 0.0501 | 0.0646 | – | 0.0676 | – | 0.0616 | – | 0.054 | 0.0508 | 0.0734 | 0.0527 | – | – | 0.0651 | 0.0672 | 0.0675 | 0.0557 | – | 0.0433
19 | F140E | 0.0694 | 0.0232 | 0.0799 | 0.069 | 0.06 | 0.0665 | – | 0.0976 | 0.0701 | 0.0538 | 0.0432 | 0.0579 | – | 0.0768 | 0.0913 | 0.0736 | 0.0913 | – | 0.0606
20 | S127A | 0.0682 | 0.0483 | – | 0.0851 | 0.0664 | 0.0844 | – | 0.0744 | 0.0682 | 0.0595 | 0.0909 | 0.0682 | – | 0.0741 | 0.067 | 0.0458 | 0.0745 | 0.0735 | 0.0758
21 | S127H | 0.0671 | 0.0663 | 0.0771 | 0.112 | 0.0765 | 0.0765 | 0.0702 | – | 0.0697 | 0.0923 | 0.0111 | 0.078 | 0.109 | 0.0745 | 0.0754 | 0.0794 | 0.113 | 0.0655 | 0.0645
22 | K90L | 0.0706 | 0.0725 | 0.0805 | 0.0831 | 0.116 | 0.0749 | 0.0665 | 0.0697 | 0.0643 | – | – | 0.0644 | 0.099 | 0.0645 | 0.0621 | – | – | – | –
23 | T115W | 0.0535 | – | 0.0622 | 0.0926 | 0.0467 | – | 0.0749 | – | 0.0658 | 0.0581 | – | 0.0622 | 0.0469 | – | 0.0981 | – | 0.0769 | – | –
24 | N116E | 0.0729 | 0.0564 | 0.055 | 0.0778 | 0.0678 | – | – | 0.0628 | 0.0636 | 0.0694 | 0.07 | 0.0607 | – | 0.0519 | 0.056 | 0.0662 | 0.0836 | – | 0.0402
25 | W141G | 0.0554 | 0.059 | 0.0556 | 0.0734 | 0.0554 | 0.0513 | – | 0.0461 | 0.0432 | 0.0311 | 0.0553 | 0.0356 | 0.0939 | – | 0.0574 | – | – | – | –
